# Laboratory results reported in the supplement of paper PMC12217912.
# Some of the results follow. The full chains were built here from the parent and the listed change. Values near 0.05 are background.
# B1: TEV protease; numbered along this chain (parent)
# chain: MGESLFKGPRDYNPISSSICHLTNESDGHTTSLYGIGFGPFIITNKHLFRRNNGTLVVQSLHGVFKVKDTTTLQQHLVDGRDMIIIRMPKDFPPFPQKLKFREPQREERICLVTTNFQTKSMSSMVSDTSCTFPSGDGIFWKHWIQTKDGQCGSPLVSTRDGFIVGIHSASNFTNTNNYFTSVPKNFMELLTNQEAQQWVSGWRLNADSVLWGGHKVFMVKPEEPFQPVKEATQL
# Variants of: B1
# Test: raw area under fraction-flipped curve 0-4 h after induction (AUC4h, not background-subtracted), DNA-recorder readout of cleavage of the substrate (dimensionless); higher = more cleavage of the substrate by the protease variant
# Settings: temperature: 34 °C; time window: 0-4 h after rhamnose induction
# Description: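 In vivo DNA recorder in E. coli TOP10(DE3) ΔrhaA at 34 °C. Each TEVp single-site mutant (parent TEVp 0) is paired with a single-site variant of the 7-mer TEVs (canonical ENLYFQ|S). The substrate sits between flexible linkers in a Bxb1-sfGFP-TEVs-SsrA fusion, so cleavage stabilises Bxb1 and speeds flipping of a recombination array, read by NGS. The value is the raw area under the fraction-flipped curve over 0-4 h after rhamnose induction (AUC4h), with ≥20 reads per time point. It is not background-subtracted; inactive controls average about 0.047.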
# 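Note: Bxb1 expression induced with 0.2% (w/v) L-rhamnose at OD600 near 0.5, cultures sampled hourly, flipped fraction per protease–substrate barcode pair counted by paired-end Illumina sequencing.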
variant,measurement,value
MGESLFKGPRDYNPISSSICHLTNESDGHTTSYYGIGFGPFIITNKHLFRRNNGTLVVQSLHGVFKVKDTTTLQQHLVDGRDMIIIRMPKDFPPFPQKLKFREPQREERICLVTTNFQTKSMSSMVSDTSCTFPSGDGIFWKHWIQTKDGQCGSPLVSTRDGFIVGIHSASNFTNTNNYFTSVPKNFMELLTNQEAQQWVSGWRLNADSVLWGGHKVFMVKPEEPFQPVKEATQL [L33Y],area with substrate ENLYAQS,0.0585
same,area with substrate ENLYCQS,0.0642
same,area with substrate ENLYDQS,0.0653
same,area with substrate ENLYEQS,0.0678
same,area with substrate ENLYGQS,0.0483
same,area with substrate ENLYHQS,0.0651
same,area with substrate ENLYIQS,0.06
same,area with substrate ENLYKQS,0.0522
same,area with substrate ENLYLQS,0.0667
same,area with substrate ENLYMQS,0.059
same,area with substrate ENLYNQS,0.0613
same,area with substrate ENLYPQS,0.0499
same,area with substrate ENLYQQS,0.0607
same,area with substrate ENLYRQS,0.0943
same,area with substrate ENLYSQS,0.0526
same,area with substrate ENLYVQS,0.0599
same,area with substrate ENLYWQS,0.0541
same,area with substrate ENLYYQS,0.0575
MGESLFKGPRDYNPISSSICHLTNESDGHTTSLYGIGFGPFIITEKHLFRRNNGTLVVQSLHGVFKVKDTTTLQQHLVDGRDMIIIRMPKDFPPFPQKLKFREPQREERICLVTTNFQTKSMSSMVSDTSCTFPSGDGIFWKHWIQTKDGQCGSPLVSTRDGFIVGIHSASNFTNTNNYFTSVPKNFMELLTNQEAQQWVSGWRLNADSVLWGGHKVFMVKPEEPFQPVKEATQL [N45E],area with substrate ENLYAQS,0.0696
same,area with substrate ENLYCQS,0.0628
same,area with substrate ENLYDQS,0.0623
same,area with substrate ENLYEQS,0.0612
same,area with substrate ENLYGQS,0.0591
same,area with substrate ENLYHQS,0.0611
same,area with substrate ENLYIQS,0.0713
same,area with substrate ENLYKQS,0.0604
same,area with substrate ENLYMQS,0.0587
same,area with substrate ENLYNQS,0.0635
same,area with substrate ENLYPQS,0.0538
same,area with substrate ENLYQQS,0.0548
same,area with substrate ENLYRQS,0.0785
same,area with substrate ENLYVQS,0.0709
same,area with substrate ENLYWQS,0.0895
same,area with substrate ENLYYQS,0.0404
MGESLFKGPRDYNPISSSICHLTNESDGHTTSLYGIGFGPFIITNKHLFRRNNGTLVVQSLHGVFKVKDTTTLQQHLVDGRDMSIIRMPKDFPPFPQKLKFREPQREERICLVTTNFQTKSMSSMVSDTSCTFPSGDGIFWKHWIQTKDGQCGSPLVSTRDGFIVGIHSASNFTNTNNYFTSVPKNFMELLTNQEAQQWVSGWRLNADSVLWGGHKVFMVKPEEPFQPVKEATQL [I84S],area with substrate ENLYAQS,0.071
same,area with substrate ENLYCQS,0.0608
same,area with substrate ENLYDQS,0.0618
same,area with substrate ENLYEQS,0.0711
same,area with substrate ENLYGQS,0.0622
same,area with substrate ENLYHQS,0.0571
same,area with substrate ENLYIQS,0.0702
same,area with substrate ENLYKQS,0.0583
same,area with substrate ENLYLQS,0.0657
same,area with substrate ENLYMQS,0.0884
same,area with substrate ENLYNQS,0.0566
same,area with substrate ENLYPQS,0.0552
same,area with substrate ENLYQQS,0.0622
same,area with substrate ENLYRQS,0.0588
same,area with substrate ENLYSQS,0.0694
same,area with substrate ENLYTQS,0.0589
same,area with substrate ENLYVQS,0.104
same,area with substrate ENLYYQS,0.0625
MGESLFKGPRDYNPISSSICHLTNESDGHTTSLYGIGFGPFIITNKHLFRRNNGTLVVQSLHGVFKVKDTTTLQQHLVDGRDMIIIRMPKDFPPFPQKLKVREPQREERICLVTTNFQTKSMSSMVSDTSCTFPSGDGIFWKHWIQTKDGQCGSPLVSTRDGFIVGIHSASNFTNTNNYFTSVPKNFMELLTNQEAQQWVSGWRLNADSVLWGGHKVFMVKPEEPFQPVKEATQL [F101V],area with substrate ENLYAQS,0.0424
same,area with substrate ENLYDQS,0.048
same,area with substrate ENLYEQS,0.04
same,area with substrate ENLYGQS,0.037
same,area with substrate ENLYHQS,0.0467
same,area with substrate ENLYKQS,0.0355
same,area with substrate ENLYRQS,0.0417
same,area with substrate ENLYTQS,0.0573
MGESLFKGPRDYNPISSSICHLTNESDGHTTSLYGIGFGPFIITNKHLFRRNNGTLVVQSLHGVFKVKDTTTLQQHLVDGRDMIIIRMPKDFPPFPQKLKFREPQREERICLVTTNFQTKSMSSMVSDTSCTFPSGDGIFWKHWIQTKDGQCGSPLVSTRDGFIVGIHSASNFTNTNNYFTSVPKNFMELLTNQEAQQWVSGWRLNADSVLWGGHKVFMVKPEEPFQPVKEATVL [Q234V],area with substrate ENLYAQS,0.0551
same,area with substrate ENLYCQS,0.0736
same,area with substrate ENLYDQS,0.0759
same,area with substrate ENLYEQS,0.0715
same,area with substrate ENLYGQS,0.063
same,area with substrate ENLYIQS,0.119
same,area with substrate ENLYKQS,0.0615
same,area with substrate ENLYMQS,0.0802
same,area with substrate ENLYNQS,0.0669
same,area with substrate ENLYPQS,0.0685
same,area with substrate ENLYQQS,0.0772
same,area with substrate ENLYRQS,0.06
same,area with substrate ENLYSQS,0.0709
same,area with substrate ENLYTQS,0.0832
same,area with substrate ENLYVQS,0.106
same,area with substrate ENLYWQS,0.0625
same,area with substrate ENLYYQS,0.0651
MGESLFKGPRDYNPISSSICHLTNESDGHTTSLYGIGFGPFIITNKHLFRRNNGTLVVQSLHGVFKVKDTTTLQQHLVDGRDMIIIRMPVDFPPFPQKLKFREPQREERICLVTTNFQTKSMSSMVSDTSCTFPSGDGIFWKHWIQTKDGQCGSPLVSTRDGFIVGIHSASNFTNTNNYFTSVPKNFMELLTNQEAQQWVSGWRLNADSVLWGGHKVFMVKPEEPFQPVKEATQL [K90V],area with substrate ENLYAQS,0.0632
same,area with substrate ENLYDQS,0.0485
same,area with substrate ENLYEQS,0.0754
same,area with substrate ENLYGQS,0.0683
same,area with substrate ENLYHQS,0.0579
same,area with substrate ENLYMQS,0.0625
same,area with substrate ENLYNQS,0.0621
same,area with substrate ENLYPQS,0.0785
same,area with substrate ENLYQQS,0.0762
same,area with substrate ENLYRQS,0.0762
same,area with substrate ENLYSQS,0.0617
same,area with substrate ENLYTQS,0.0537
same,area with substrate ENLYVQS,0.123
same,area with substrate ENLYWQS,0.0728
MGESLFKGPRDYNPISSSICHLTNESDGHTTSLYGIGFGPFIITNKHLFRRNNGTLVVQSLHGVFKVKDTTTLQQHLVDGRDMIIIRMPKDFPPFPQKLKFREPQREERICLVRTNFQTKSMSSMVSDTSCTFPSGDGIFWKHWIQTKDGQCGSPLVSTRDGFIVGIHSASNFTNTNNYFTSVPKNFMELLTNQEAQQWVSGWRLNADSVLWGGHKVFMVKPEEPFQPVKEATQL [T114R],area with substrate ENLYAQS,0.0904
same,area with substrate ENLYCQS,0.0796
same,area with substrate ENLYDQS,0.0626
same,area with substrate ENLYEQS,0.0719
same,area with substrate ENLYGQS,0.0782
same,area with substrate ENLYHQS,0.092
same,area with substrate ENLYKQS,0.0706
same,area with substrate ENLYLQS,0.0603
same,area with substrate ENLYMQS,0.0826
same,area with substrate ENLYNQS,0.0769
same,area with substrate ENLYSQS,0.0942
same,area with substrate ENLYTQS,0.0794
same,area with substrate ENLYVQS,0.105
same,area with substrate ENLYWQS,0.115
same,area with substrate ENLYYQS,0.0671
MGESLFKGPRDYNPISSSICHLTNESDGHTTSLYGIGFGPFIITNKHLFRRNNGTLVVQSLHGVFKVKDTTTLQQHLVDGRDMIIIRMPKDFPPFPQKLKFREPQREERICLVTTNFQTKSMSSMVSDTSCTFPSGDGIFWKHWIQTKDGQCGSPLVSTRDGFIVGIHSASNFTLTNNYFTSVPKNFMELLTNQEAQQWVSGWRLNADSVLWGGHKVFMVKPEEPFQPVKEATQL [N175L],area with substrate ENLYAQS,0.0525
same,area with substrate ENLYCQS,0.0521
same,area with substrate ENLYDQS,0.0804
same,area with substrate ENLYEQS,0.058
same,area with substrate ENLYGQS,0.0626
same,area with substrate ENLYHQS,0.0532
same,area with substrate ENLYKQS,0.0659
same,area with substrate ENLYMQS,0.0862
same,area with substrate ENLYPQS,0.051
same,area with substrate ENLYRQS,0.0328
same,area with substrate ENLYSQS,0.1
same,area with substrate ENLYVQS,0.0865
same,area with substrate ENLYWQS,0.0122
same,area with substrate ENLYYQS,0.0651
